# Experimental data as given in the supplement of paper PMC3334620.
# In all, about 33,000 sequences were measured (“E-score (-0.5 to 0.5)”: median about -0.04, highest 2% from about 0.36 on). This is one part of the list.
# Molecular target: T1, Hmlalpha2 (UniProt P0CY09)
# T1 sequence: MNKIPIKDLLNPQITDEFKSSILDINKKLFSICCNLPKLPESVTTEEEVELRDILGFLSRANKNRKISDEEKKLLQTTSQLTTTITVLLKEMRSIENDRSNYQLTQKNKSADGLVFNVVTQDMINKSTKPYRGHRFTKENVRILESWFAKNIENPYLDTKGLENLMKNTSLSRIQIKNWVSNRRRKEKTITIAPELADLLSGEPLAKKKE
# Assay: PBM E-score (8-mer binding enrichment) (E-score (-0.5 to 0.5)); higher = stronger / more preferred TF binding; most listed sequences are background and not binding sites
# Settings: protein concentration: 200 nM; construct: GST-full length
# Outline: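 Using PURExpress in vitro transcription/translation, GST-tagged yeast transcription factors were made in full-length or DNA-binding-domain form. These were applied at about 100-200 nM to double-stranded universal all-10-mer Agilent arrays, and bound protein was detected with fluorescent anti-GST. Scans were normalised with masliner before the Universal PBM Analysis Suite assigned E-scores to ungapped eight-base words pooled with their reverse complements.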
row,Sequence,PBM E-score
1,CATCTTCG,-0.0677
2,ATTTCACA,0.233
3,TATTGTCA,0.104
4,ATTCTGAG,-0.145
5,ACATGCCT,0.3
6,AAACAAGA,0.179
7,AGGACTTC,-0.198
8,GTGCGAAA,0.0475
9,GTGGAAAA,0.101
10,AGACCACG,-0.192
11,CAAAACCC,0.0242
12,AGTAGCAA,0.142
13,AGACCCAA,-0.164
14,CGCGCCAC,-0.045
15,CACTCATC,-0.0518
16,CCAGCGTC,-0.395
17,AGCAGCGC,-0.0627
18,GGTGAGTA,0.135
19,CCTTCGAG,-0.292
20,GATTTTTA,0.0837
21,CCGGCGTA,0.0423
22,GATAGCCC,-0.16
23,AACGTGCA,0.172
24,CATCTGGA,-0.164
25,CTGCGAAA,0.0491

row,Sequence,PBM E-score
1,ACGACTCT,-0.052
2,CGATCACC,-0.17
3,CTGTAGTA,0.306
4,AGCTGACT,-0.193
5,AGCACTAG,-0.0442
6,GTTCATCA,0.12
7,GCAGATAC,-0.0462
8,CTGATATA,0.143
9,CCGGGTAA,0.048
10,GACTACCA,-0.0886
11,CGAGCCCC,-0.261
12,GAGGCTGC,-0.178
13,CTGTATCA,0.0319
14,GAAGAATC,-0.255
15,CAGTTCGA,0.136
16,CACTCTGA,-0.0277
17,AGTGGGAA,-0.0766
18,ATTGTTGG,0.151
19,CGATACCA,0.00773
20,CCAATAGA,-0.042
21,AACCGTGC,0.0444
22,ACATTCTA,0.244
23,CTGACTAA,0.0106
24,CGGTAGCC,-0.00427
25,GGGTATAA,-0.128

row,Sequence,PBM E-score
1,AGACGACT,-0.144
2,GGATATCC,0.0594
3,GAATATCC,-0.134
4,CACATTAG,-0.078
5,ATTGCTAA,0.0929
6,CGGAACTA,-0.0737
7,AGCAGTAG,-0.23
8,AATGGTCC,-0.129
9,CCGCCTAG,-0.214
10,GTAGCTAC,0.126
11,AGACCAGA,-0.231
12,AAGCGCAA,0.0467
13,GATCCGCC,-0.0473
14,AGGGAGGA,-0.232
15,ACTGTGGA,-0.139
16,ATTCCCTG,-0.0261
17,GTCGAGCA,-0.118
18,CGCCTGAC,-0.0583
19,ATCTGCGA,-0.0862
20,CCCGATCG,-0.134
21,ATGGAGTC,-0.0783
22,GAACTGCC,-0.264
23,GACCGATA,-0.213
24,CGGTGGAA,-0.124
25,AACTTAAG,0.0471

row,Sequence,PBM E-score
1,CAAGTCAG,-0.157
2,GAAGATAA,0.242
3,AGGGAAAG,-0.0927
4,ACGCAACT,0.117
5,CTTGGATC,-0.157
6,CTAGGCAA,-0.126
7,ATACATTC,0.296
8,ACAAGAGA,0.116
9,AATGACAG,-0.085
10,GACTTGCC,-0.294
11,CTCTGTCC,-0.0998
12,CATCACGA,0.0466
13,AATGACTC,-0.073
14,CCCCTGCA,-0.0928
15,GACATCAC,0.0654
16,CAATGGCC,-0.249
17,CAGTGGGC,-0.221
18,CGGGTGCA,-0.263
19,GTAACTAA,0.163
20,CATTGGAG,-0.13
21,CAAACGCA,0.149
22,CATCTAAC,0.00439
23,CGGTGCTA,-0.273
24,CATATTGA,0.101
25,AGCCCGGA,-0.327

row,Sequence,PBM E-score
1,ACGGACCC,-0.295
2,ACGTAAAT,0.376
3,AGAGACAC,0.00397
4,AGAAAACT,0.185
5,GCGAACCC,-0.103
6,CCATGTCC,-0.00972
7,CTGGGTCC,-0.211
8,AATGTCGT,0.23
9,CGAACGTA,0.122
10,GGCCGCAA,-0.165
11,ACACTAAA,0.202
12,AGCGCGTC,-0.00218
13,GCAGCACC,-0.183
14,CGTTAGAA,0.0666
15,ACTTCCTA,-0.0845
16,TGATTTAA,0.211
17,GCAATTGC,-0.0549
18,AAAGTCTC,-0.181
19,ACAGCGAG,0.0402
20,CCACGTGA,-0.0869
21,ACCGAAAA,0.145
22,ATATAGGC,-0.102
23,CAACAAGC,0.304
24,AACCTTAA,0.0676
25,GGGGCTAA,-0.207

row,Sequence,PBM E-score
1,GGGTGCTA,-0.0803
2,AGTGCTAA,-0.106
3,TACCTCCA,-0.0164
4,ACACTACC,0.0426
5,GTCAGCCA,-0.237
6,AGGGATTG,-0.194
7,GCGCGGTA,0.0518
8,ATTTGGAG,-0.15
9,GAGACGTA,0.0981
10,TCTGAGCA,-0.0476
11,ACCCTATC,-0.235
12,CCTATTTC,0.0862
13,CGTACTCC,-0.00105
14,CCTGTATA,0.0463
15,ACATTAAA,0.282
16,AGTCATAT,0.0645
17,ACCGATCG,-0.0666
18,AAGCTTAG,0.125
19,CGACAGGA,0.0472
20,ATCGCACA,0.0248
21,CATGCACA,0.206
22,GCGCATGA,-0.252
23,CAACCCTG,0.0973
24,ACCTACGT,0.161
25,GGGACTTA,-0.128

row,Sequence,PBM E-score
1,CTACGAAG,-0.0712
2,AGCATCCG,0.0084
3,ATGCTCTG,-0.166
4,CCTCTCGA,-0.18
5,CAATGTTC,0.0235
6,GGATTGTA,0.106
7,ACGGCGCC,-0.211
8,AACGTGGG,-0.0455
9,TCCGATAA,-0.244
10,AGTGGATA,-0.0729
11,GAGTATGA,0.105
12,ACTATTGA,0.0542
13,CGGGGGAG,-0.385
14,TGCACTAA,0.143
15,AGATTCGG,0.0704
16,AGCACATC,-0.136
17,GACGGATA,-0.056
18,ATCGCTTA,-0.0705
19,GTCGTTAA,0.209
20,CACTAGTG,-0.11
21,CATTATGA,-0.097
22,AGCCCCTC,-0.288
23,CCCAAAAC,0.154
24,CCAGCTTC,-0.101
25,CGCACTAC,0.00519

row,Sequence,PBM E-score
1,CCCCTACG,-0.423
2,CACGGTAG,-0.0692
3,CAAGGATA,0.00467
4,ACCACTTG,0.0313
5,TAATTATA,0.245
6,CTGAATAA,0.0222
7,GGCGAAGA,-0.227
8,AGACGGGG,-0.297
9,ATAACCCC,-0.142
10,CAGTACTA,-0.00155
11,CCGTGTAC,0.422
12,ACCAAGGA,-0.169
13,ATCGGGGC,-0.175
14,ACTCTCCC,-0.283
15,AATAGACT,-0.106
16,TCGGCAAA,-0.138
17,GAGCGATC,-0.195
18,ATCGCACG,-0.00999
19,GACATAGC,0.223
20,AAGCGCGA,0.0244
21,ATCAGTTG,0.105
22,CGACCAGA,-0.142
23,GATCTTGC,-0.0142
24,CTTCCATC,-0.272
25,GACGAAGC,-0.0232

row,Sequence,PBM E-score
1,GGAACGAC,0.0513
2,CGTCCGAC,-0.085
3,CATCCCCC,-0.376
4,ATATAGTA,0.225
5,CTAATAGA,-0.0104
6,GCCGCGAA,-0.281
7,ACCAGGAG,-0.152
8,AAGTAGAA,0.0823
9,ACAAGACC,0.149
10,CTCGAAGC,-0.123
11,CGAAATAG,0.0467
12,AGAGGTAC,-0.201
13,CTCATAAG,-0.177
14,TCTGCGCA,-0.00074
15,AATTCCTC,-0.0947
16,CCTATATC,-0.117
17,GTCGTGGA,-0.154
18,ACATGAGT,0.364
19,GATTTTAC,0.218
